# Measurements reported in paper PMC4336329 (PLoS ONE, 2015).
# About 2,200 (0.71%) of roughly 310,000 compounds showed an effect of 50% or more. The effect is printed as a negative number. The list shows a part of the results.
# Biological target: human ether-à-go-go-related gene (hERG) potassium channel (human, UniProt Q12809)
# Assay: primary screen, population patch clamp on CHO cells stably expressing hERG
# Sequence of human ether-à-go-go-related gene (hERG) potassium channel (Q12809 whole entry, looked up): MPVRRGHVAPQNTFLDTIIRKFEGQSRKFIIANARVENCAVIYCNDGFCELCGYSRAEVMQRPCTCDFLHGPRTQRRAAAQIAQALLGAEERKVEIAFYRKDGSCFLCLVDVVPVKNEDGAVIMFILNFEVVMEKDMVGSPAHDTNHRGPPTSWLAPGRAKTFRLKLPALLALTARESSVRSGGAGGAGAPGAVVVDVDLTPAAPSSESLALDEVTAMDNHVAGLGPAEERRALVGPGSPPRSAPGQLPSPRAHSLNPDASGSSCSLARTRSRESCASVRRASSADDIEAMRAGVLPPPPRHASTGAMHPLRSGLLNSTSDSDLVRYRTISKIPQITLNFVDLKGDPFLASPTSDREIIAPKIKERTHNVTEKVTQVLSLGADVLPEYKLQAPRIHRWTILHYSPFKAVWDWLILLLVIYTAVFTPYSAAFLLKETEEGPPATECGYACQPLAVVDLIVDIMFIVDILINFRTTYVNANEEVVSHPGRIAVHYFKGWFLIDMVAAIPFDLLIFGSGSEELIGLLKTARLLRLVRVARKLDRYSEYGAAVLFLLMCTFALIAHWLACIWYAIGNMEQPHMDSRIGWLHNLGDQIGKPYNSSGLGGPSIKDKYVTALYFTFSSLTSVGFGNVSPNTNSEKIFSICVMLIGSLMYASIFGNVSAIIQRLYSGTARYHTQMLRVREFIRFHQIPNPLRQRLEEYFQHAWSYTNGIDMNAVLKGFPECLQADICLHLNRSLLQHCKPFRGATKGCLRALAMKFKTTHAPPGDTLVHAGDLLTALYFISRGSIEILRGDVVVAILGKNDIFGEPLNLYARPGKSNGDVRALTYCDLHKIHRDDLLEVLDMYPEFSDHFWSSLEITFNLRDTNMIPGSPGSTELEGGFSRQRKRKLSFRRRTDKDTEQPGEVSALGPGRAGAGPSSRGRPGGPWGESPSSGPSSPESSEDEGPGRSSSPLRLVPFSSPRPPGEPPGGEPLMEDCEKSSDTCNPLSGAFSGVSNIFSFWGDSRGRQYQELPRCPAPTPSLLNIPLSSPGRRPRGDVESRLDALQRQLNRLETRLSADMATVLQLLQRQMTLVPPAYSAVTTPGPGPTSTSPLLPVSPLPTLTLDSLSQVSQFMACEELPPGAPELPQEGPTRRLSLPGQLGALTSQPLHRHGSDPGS
row,SMILES,"hERG current change (%, negative = inhibition) at 1uM [%]"
1,NC(=O)c1c(NC(=O)c2ccccc2)sc2c1CCc1ccccc1-2,4.64
2,CCNC(=S)NNC(=O)c1nn(C)c(C)c1Cl,10.5
3,CC(C)CNC(CC(=O)O)c1ccccc1 (stereo not drawn),6.91
4,CN(C)CCNC(C(=O)Nc1cccc(C(F)(F)F)c1)c1ccccc1.O=C(O)C(=O)O (stereo not drawn),-14.6
5,CCOc1ccccc1NC(=O)COc1coc(CN2CCCc3ccccc32)cc1=O,13.5
6,CCN(CC)S(=O)(=O)c1ccc(N2CCN(CCOc3ccc(OC)cc3)CC2)nc1,-1.21
7,COc1ccc(Cc2nnc(NC(=O)C3CC(=O)N(c4ccccc4)C3)s2)cc1OC (stereo not drawn),0.647
8,CCOC(=O)c1c(NC(=O)c2cccs2)sc2c1CC(C)(C)OC2,9.62
9,Cc1ccc(C(=O)N/C(=C\c2ccc(-c3ccc(Cl)cc3)o2)C(=O)NCCCN(C)C)cc1,-93.5
10,COc1cccc(C2C(C(=O)c3cccs3)=C(O)C(=O)N2CCN2CCOCC2)c1 (stereo not drawn),17.2
11,CCOC(=O)c1c(C)nn(-c2ncccc2NC(=O)NC(C)C)c1C,1.69
12,CC(CN1CCCCC1)OC(=O)c1ccccc1F.Cl (stereo not drawn),10.6
13,COc1ccc(N2CCN(C(=O)CCc3ccc(S(=O)(=O)NC(C)(C)C)cc3)CC2)cc1,9.52
14,COc1ccc(-c2nc(CN3CCN(Cc4cccc(F)c4)CC3)c(C)o2)cc1,-5.04
15,O=C(CCCSc1nc2ccccc2[nH]1)NCc1ccccc1F,4.76
16,CN1C(=O)CSc2ccc(NC(=O)N3CCC(N4CCCCC4)CC3)cc21,-2.54
17,CSc1nc2c(c(=O)[nH]1)C(c1ccccc1)C1=C(CC(C)(C)CC1=O)N2 (stereo not drawn),17.4
18,CN1CCC(C2(O)c3ccccc3CSc3sccc32)CC1 (stereo not drawn),7.14
19,CCC(C)Sc1nc2c(c(=O)[nH]c(=O)n2C)n1Cc1ccc(Cl)cc1 (stereo not drawn),2.15
20,O=C(O)/C=C/C(=O)Nc1ccccc1SC(F)(F)C(F)(F)C(F)(F)F,-2.03
21,COc1ccc(C(=O)O/N=C(/c2cccs2)C(C)(C)C)cc1,9.8
22,O=C(O)CSc1nnc(SCc2cccc3ccccc23)s1,6.81
23,CCc1sc(C(=O)Nc2cccc(C(C)=O)c2)cc1C,3.68
24,CCCCn1c(SCC(=O)Nc2ccc(NC(C)=O)cc2)nc2ccccc2c1=O,3.76
25,CCO.Cn1c2c(c(=O)n(C)c1=O)[C@@]1(C(=O)Nc3ccccc31)C(C#N)=C(N)O2,12.2
26,Cn1ccnc1Sc1ccc(C=O)cc1[N+](=O)[O-],4.93
27,CCOC(=O)c1[nH]c2ccc(OCC)cc2c1CCCN1C(=O)c2ccccc2C1=O,14.5

row,SMILES,"hERG current change (%, negative = inhibition) at 1uM [%]"
1,COC(=O)CN1C(=O)[C@@H]2[C@H](C1=O)[C@@H]1CC(C(=O)OC)=C[C@@H](C(=O)OC)[C@@H]3C1=C(C(=O)[C@@]3(C)NC(=O)c1ccccc1)[C@@H]2C,9.32
2,CC(C)[C@@H]1NC(=O)N(c2ccc(Oc3ccccc3)cc2)C1=O,11.4
3,COc1ccc(NC(=O)CCC(=O)N(Cc2ccc(OC)c(OC)c2)c2nccs2)c(OC)c1,8.49
4,CCOC(=O)c1ccccc1NC(=O)C1COc2ccccc2O1 (stereo not drawn),9.21
5,O=C(O)CC(NCc1ccco1)C(=O)OCCCl (stereo not drawn),15.2
6,O=C(NCc1ccccc1)c1cccc(COc2ccc(Cl)cc2)c1,7.31
7,C[C@@]12C(=O)N(Cc3ccccc3)CC(=O)N1[C@H](/C=C/c1ccccc1)[C@@H]1C(=O)N(c3ccccc3)C(=O)[C@@H]12,3.72
8,CC1CCN(S(=O)(=O)c2ccc3[nH]c(=O)c(=O)[nH]c3c2)CC1,2.51
9,O=[N+]([O-])c1ccc(Oc2cccc(Br)c2)c2ccncc12,11.9
10,CN1CCc2c(sc3nc(SCC(N)=O)n(-c4ccccc4)c(=O)c23)C1,6.73
11,C/C(=N/NC(=O)c1sc(NS(=O)(=O)c2ccccc2)nc1C)c1sc(N)nc1C,11.1
12,CCCn1nnnc1SCC(=O)N1CCCC1,5.4
13,CCCCn1c(Cc2ccccc2)nnc1SCC(=O)N1CCOCC1,-1.72
14,O=C(Nc1ccc(S(=O)(=O)N2CCOCC2)cc1)c1cc([N+](=O)[O-])ccc1Cl,11.4
15,NS(=O)(=O)c1ccc(N=Cc2c(O)n(C3CCCCC3)c(=O)n(C3CCCCC3)c2=O)cc1,11.8
16,Cc1ccc(OCC(=O)c2cc(C)n(-c3ccccc3)c2C)c([N+](=O)[O-])n1,1.59
17,COc1ccc(-c2cc(C(=O)Nc3cc(S(N)(=O)=O)ccc3C)c3ccccc3n2)cc1OC,10.9
18,NS(=O)(=O)c1ccc(-c2ccc(/C=N/Nc3ccc(C(=O)O)cc3)o2)cc1,3
19,COc1ccc([N+](=O)[O-])cc1NC(=S)NC(NC(=O)Cc1ccc(OC)c(OC)c1)C(Cl)(Cl)Cl (stereo not drawn),7.54
20,COc1ccc(NC(=O)CN(C)C(=O)Cc2c[nH]c3ccccc23)cc1,3.36
21,COC(C(=O)N1CCC(CCC(=O)Nc2ccccc2)CC1)c1ccccc1 (stereo not drawn),1.82
22,Cc1cccc(NC(=O)c2cccnc2)c1C,13.1
23,CCOC(=O)Cc1csc(NC(=O)CCC(=O)O)n1,15.1
24,Cn1c(C(=O)O)c(CC(=O)Nc2ccccc2F)c2ccccc21,4.81
25,O=C(c1cc(Cl)nc2ccccc12)N(Cc1nnc(-c2ccccc2Cl)o1)C1CC1,2.4
26,Cc1cccc(C(=O)NNC(=O)C2CC2)c1,3.65
27,COc1cc2cc(C[C@H](C)O)oc(=O)c2cc1OC,17.8
